# Data taken from PMC7256200, “Identifying a Molecular Mechanism That Imparts Species-Specific Toxicity to YoeB Toxins” (Frontiers in Microbiology, 2020).
# B1: His-AtYefM antitoxin (Atu2018) from Agrobacterium tumefaciens, pET15b construct, His tag kept (natural protein)
# chain: MANVRFTEFRQNFATHFDRVLETRAPLLVTRQGKEAVVVLAEGEYESMQETLHLLSNPANASRLRASMGELERGDTIERDPTEE
# notes: Cloned into pET15b; source: E. coli BL21 (DE3), purified (NiNTA, Superdex 75)
# Target: the molecule itself
# Assay: SEC-MALS; Separately purified proteins; Superdex 200 Increase 10/30 GL, 25 mM HEPES pH 7.5, 150 mM NaCl, room temperature; monomer to dimer
protein,measurement,value
B1,stoichiometry N,2
